# Paper PMC4336329 (PLoS ONE, 2015)
# Out of some 310,000 compounds screened, about 14,000 (4.5%) showed an effect of 50% or more. The effect is printed as a negative number. The list shows a part of the results.
# Target: human ether-à-go-go-related gene (hERG) potassium channel (human, UniProt Q12809)
# Assay: primary screen, population patch clamp on CHO cells stably expressing hERG
# 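Also: peak tail current of the secondary pulse compared with the same well before compound.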
# Sequence of human ether-à-go-go-related gene (hERG) potassium channel (Q12809 whole entry, looked up): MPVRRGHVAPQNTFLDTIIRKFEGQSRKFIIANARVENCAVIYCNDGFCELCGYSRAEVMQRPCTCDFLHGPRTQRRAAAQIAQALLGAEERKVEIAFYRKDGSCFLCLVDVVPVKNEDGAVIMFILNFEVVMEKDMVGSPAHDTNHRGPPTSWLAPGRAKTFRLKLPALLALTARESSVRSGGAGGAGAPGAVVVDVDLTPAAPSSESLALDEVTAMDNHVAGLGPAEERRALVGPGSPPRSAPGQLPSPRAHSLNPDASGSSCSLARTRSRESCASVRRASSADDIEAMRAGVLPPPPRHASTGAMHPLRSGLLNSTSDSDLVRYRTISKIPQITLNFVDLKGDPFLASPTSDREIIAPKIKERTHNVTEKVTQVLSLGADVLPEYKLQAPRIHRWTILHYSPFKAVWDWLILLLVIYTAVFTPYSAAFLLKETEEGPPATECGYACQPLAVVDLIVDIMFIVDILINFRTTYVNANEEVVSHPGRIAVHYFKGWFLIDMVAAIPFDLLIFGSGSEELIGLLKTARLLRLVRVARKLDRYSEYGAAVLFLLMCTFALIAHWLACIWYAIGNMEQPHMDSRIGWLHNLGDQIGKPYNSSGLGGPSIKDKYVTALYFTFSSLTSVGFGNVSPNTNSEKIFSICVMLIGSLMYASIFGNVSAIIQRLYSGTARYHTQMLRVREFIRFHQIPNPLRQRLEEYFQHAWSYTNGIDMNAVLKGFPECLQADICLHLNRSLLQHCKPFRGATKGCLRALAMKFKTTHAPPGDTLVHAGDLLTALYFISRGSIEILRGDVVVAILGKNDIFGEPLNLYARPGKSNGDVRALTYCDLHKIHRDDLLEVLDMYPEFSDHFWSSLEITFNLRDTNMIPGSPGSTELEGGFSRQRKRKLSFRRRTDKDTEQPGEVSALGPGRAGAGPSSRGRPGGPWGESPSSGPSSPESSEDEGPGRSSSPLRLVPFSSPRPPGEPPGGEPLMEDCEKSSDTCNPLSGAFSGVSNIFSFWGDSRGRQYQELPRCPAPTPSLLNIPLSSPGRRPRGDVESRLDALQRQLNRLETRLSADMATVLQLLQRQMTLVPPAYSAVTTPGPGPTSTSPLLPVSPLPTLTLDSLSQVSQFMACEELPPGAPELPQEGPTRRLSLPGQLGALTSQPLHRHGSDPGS
row,Structure (SMILES),"hERG current change (%, negative = inhibition) at 10uM"
1,Cl.Cn1c(=O)c2c(ncn2CCCC(=N)N2CCOCC2)n(C)c1=O,16.4%
2,Cc1ccccc1OCC(=O)NCC(=O)N/N=C/c1cccc([N+](=O)[O-])c1,16.5%
3,Cn1c(-c2ccc(F)cc2)cnc1NCc1ccc(C#N)cc1,-73.7%
4,N#Cc1c(NC(=O)CSc2nnnn2C2CCCCC2)sc2c1CCCC2,1.39%
5,Cc1ccc(C(=O)Nc2ccccc2[N+](=O)[O-])cc1S(=O)(=O)N1CCOCC1,-25.2%
6,CCOc1ccccc1-c1nc(CN2CCN(C(=O)c3ccco3)CC2)c(C)o1,-2.01%
7,COc1ccc(NC(=O)c2[nH]ncc2[N+](=O)[O-])cc1,10.6%
8,Cc1cc(NC(=O)CCCN2C(=O)/C(=C/c3ccccc3Cl)SC2=S)no1,-0.189%
9,CCOC(=O)N1CCC(NC(=O)c2cc3c(-c4ccc(OC)c(OC)c4)nn(C)c3s2)CC1,2.98%
10,Oc1ccc2ccc3cccc[n+]3c2c1.[I-],23.7%
11,COc1cccc(CN(C)CC(=O)Nc2ccccc2C(=O)Nc2ccccc2)c1,18.1%
12,COc1ccc(CNC(=O)CCN2C(=O)c3ccncc3C2=O)cc1OC,13%
13,Clc1ccc(-n2nnnc2SCc2c(-c3ccccc3)nc3sccn23)cc1,-1.43%
14,Cc1ccc(-n2nc3c(=O)n(CC(=O)NCc4cccs4)nc(C)c3c2C)cc1,-20.1%
15,O=C(CNS(=O)(=O)c1ccc(Br)s1)NC1CCCc2ccccc21 (stereo not shown),-2.79%
16,O=C(Nc1ccon1)c1ccc(S(=O)(=O)N2CCCCCC2)cc1,9.89%
17,CCOc1ccccc1/C=C(\C#N)C1=CCCC1,16.1%
18,CCOc1ccc(NC(=O)NNC(=O)c2ccc(Cl)cc2Cl)cc1,24.1%
19,COc1cc(SC)ccc1C(=O)Nc1cccc(C)n1,-14%
20,CCn1c(SCCN2CCOCC2)nc2c1c(=O)n(C)c(=O)n2C,15.8%
21,CS(=O)(=O)Nc1cc2c3c(c1)CCC(=O)N3CCC2,12%
22,Cc1c(/C=C(\CC(=O)O)c2nc3ccccc3s2)cc(C#N)n1C,10.8%

row,Structure (SMILES),"hERG current change (%, negative = inhibition) at 10uM"
1,O=C(NCc1cccnc1)C(=O)Nc1cc2c3c(c1)CC(=O)N3CCC2,8.2%
2,CC(=O)c1c(C)n([O-])c2cc(F)c(F)cc2[n+]1=O,29.6%
3,O=C(Nc1ccc2nc(C3CC3)n(Cc3ccc(F)cc3)c(=O)c2c1)c1ccco1,-11.7%
4,CCN(CC)S(=O)(=O)c1cc(NC(=O)NCCCl)ccc1C,-11.7%
5,CC(CC(=O)NNC(=O)c1cccc(Cl)c1)c1ccccc1 (stereo not shown),4.59%
6,O=C(CN1CCN(S(=O)(=O)c2ccccc2)CC1)NC1CC1,15.3%
7,Cc1onc(-c2ccccc2Cl)c1C(=O)OCC(=O)c1ccccc1,-3.82%
8,Cc1ccc(C)c(OCC(O)CN2CCN(CCN3C(=O)c4cccc5cccc(c45)C3=O)CC2)c1.Cl (stereo not shown),-67.3%
9,CCn1c(NC(=O)c2cccs2)nc2ccccc21,3.21%
10,COc1ccc2[nH]c(C)c(CCN(Cc3cccs3)C(=S)Nc3ccc(F)cc3)c2c1,2.08%
11,Cc1ccc(C)c(N(CC(=O)NC(C)(C)C)C(=O)CCC(=O)Nc2nccs2)c1,2.56%
12,O=c1[nH]c2cc3c(cc2cc1C(c1nnnn1CC1CCCO1)N1CCCCCC1)OCCO3 (stereo not shown),-0.134%
13,Cc1sc2nc(C3CC3)nc(SCC(=O)N3CC(=O)Nc4ccccc43)c2c1C,9.57%
14,CC(C)Oc1ccc(S(=O)(=O)N2CCCCC2)cc1NC(=O)CN1CCCC1c1cccs1 (stereo not shown),15.4%
15,CCC(=O)c1ccc(OCC(=O)OCC(=O)N2CCCc3ccccc32)cc1,12.5%
16,c1ccc(-c2nc(-n3nc4ccccc4n3)nc3ccccc23)cc1,3.21%
17,CN(C)/C=C/C(=O)c1ccc(Br)s1,14.5%
18,COC(=O)CSc1nc(C)cc(C)n1,1.7%
19,CCNc1nc(NCC)n2c(SCC(=O)N3CC4(C)CC3CC(C)(C)C4)nnc2n1 (stereo not shown),3.01%
20,COC(=O)c1ccc2c(=O)n(CCCCCC(=O)O)c(=O)[nH]c2c1,6.49%
21,CCN1C(=O)N[C@@H](c2cccs2)C(C(C)=O)=C1C,3.96%
22,COc1ccc2c(c1)C1=C(CC2)C(c2ccc(C)cc2)NC(=S)N1 (stereo not shown),-1.59%

row,Structure (SMILES),"hERG current change (%, negative = inhibition) at 10uM"
1,COCCNS(=O)(=O)c1ccc2c(c1)C(=NO)c1cc(S(=O)(=O)NCCOC)ccc1-2,0.547%
2,COc1ccccc1N1CCN(C2CCCCC2NS(=O)(=O)c2ccc(Cl)cc2)CC1 (stereo not shown),-31.5%
3,COc1ccccc1-n1c(SCC(N)=O)nc2sc3c(c2c1=O)CCC3,9.36%
4,O=C(N/N=C/c1cccnc1)C(=O)N1CCCCCC1,19.8%
5,COc1ccc(C(=O)Nc2ccc(C3CC3(Cl)Cl)cc2)cc1 (stereo not shown),19.6%
6,CC(=O)Nc1ccc(C(=O)Nc2cc(C)on2)cc1,28.7%
7,CC1CN(C(=S)NC(=O)c2cccc([N+](=O)[O-])c2)CC(C)O1 (stereo not shown),19.9%
8,O=C(COC(=O)c1ccc(F)cc1F)Nc1ccc2[nH]c(=O)[nH]c2c1,10.3%
9,COc1ccc(CNC(=O)C2CCN(c3nn4c(=O)cc(C)nc4s3)CC2)cc1,-4.51%
10,CCN(CC)S(=O)(=O)c1cc(C(=O)OC)ccc1Cl,4.43%
11,Cc1oc(-c2ccc(Cl)cc2)nc1CS(=O)CC(=O)NCc1cccs1 (stereo not shown),-45%
12,CCC(COC(=O)Nc1cccc(C)c1C)NC(=O)OCC(C)C (stereo not shown),-21.3%
13,CCOCCn1[nH]c2ccccc2c1=O,6.03%
14,Cc1ccc2nsnc2c1S(=O)(=O)N1CCCC1,-5.75%
15,CC(=O)Nc1ccc(NC(=O)CSc2ccc([N+](=O)[O-])cn2)cc1,11.3%
16,COc1ccc(C(=O)N/C(=C/c2cccs2)C(=O)NCCCn2ccnc2)cc1OC,-7.14%
17,COc1ccc(CCNC(=O)c2ccc([N+](=O)[O-])cc2Cl)cc1OC,-4.77%
18,CCCS(=O)(=O)N1CCN(C(=O)c2cccs2)CC1,1.32%
19,C=CCCC(=O)NC1CC(C)(C)Cc2c1cnn2-c1cccc(F)c1 (stereo not shown),-68.4%
20,CCN1C(=O)[C@H]2[C@@H](c3ccc(-c4ccc(OC)cc4)cc3)N3CCC[C@@]3(C(=O)OC)[C@H]2C1=O.O=C(O)C(F)(F)F,-1.81%
21,CC(=O)NNc1[nH]c2c(c(=O)c1[N+](=O)[O-])c(=O)n(C)c(=O)n2C,15.8%
22,Cc1cc(=O)oc2cc3c(cc12)OCCO3,18.6%

row,Structure (SMILES),"hERG current change (%, negative = inhibition) at 10uM"
1,Br.COC(=O)CN1C(C)=Nc2ccc(Br)cc2C1c1ccccc1 (stereo not shown),-49.1%
2,COc1cccc(-c2cc(C(F)(F)F)n3ncc(S(=O)(=O)c4ccccc4)c3n2)c1,3.2%
3,CCN1CCCC1CN=Cc1c(O)n(-c2ccccc2)c(=O)c2ccccc12 (stereo not shown),-41.1%
4,COc1ccc(C(=O)Nc2nnc(S(=O)(=O)N3CCCCCC3)s2)cc1OC,-0.855%
5,Cc1ccc(NC(=O)CN2C(=O)C(=O)N(C3CCCC3)C2=O)c(Cl)c1,5.52%
6,N/C(Cc1ccc(Cl)cc1)=N\OC(=O)C1CCCCC1,0.379%
7,CC1CCN(C(=S)Nc2ccc(SC(F)F)cc2)CC1,-33%
8,COc1ccc(C)cc1NC(=O)COCC(=O)O,-8.48%
9,CN(C(=O)CNC(=O)OCc1ccccc1)c1ccc(Br)cc1C(=O)c1ccccc1Cl,-0.016%
10,C=CCNc1nc(C(=O)OCC(=O)c2ccc(Cl)cc2)cs1,6%
11,O=C(Nc1cccc(C(=O)O)c1)/C(=C\c1ccco1)NC(=O)c1ccccc1,22.1%
12,Cc1ccc(C(CC(N)=O)c2ccco2)cc1 (stereo not shown),3.51%
13,Cc1cc(C)cc(N(CC(=O)N2CCn3c2nc2ccccc23)S(=O)(=O)c2c(C)noc2C)c1,5.91%
14,O=C(COC(=O)C12CC3CC(CC(C3)C1)C2)Nc1ncc(Cl)cc1Cl,14.9%
15,Brc1ccc2ncnc(NCc3ccccc3)c2c1,-10.3%
16,Cc1ccc(S(=O)(=O)N2CCN(Cc3nc4ccccc4[nH]3)CC2)cc1C,-45.1%
17,Cn1c(=O)c2c(nc(CN3CCN(C(=O)c4ccco4)CC3)n2Cc2ccc(F)cc2)n(C)c1=O,-44.8%
18,Cn1c(=O)cc(C(=O)N/N=C/c2ccc(F)cc2)[nH]c1=O,11.1%
19,NC(=O)CN1C(=O)NC2(CCCc3sccc32)C1=O (stereo not shown),23.5%
20,COc1ccc(S(=O)(=O)N2CCCC(N(C)CCc3ccccc3)C2)cc1OC (stereo not shown),-66.5%
21,C=CCSc1nc2ccccc2n2cnnc12,-18.5%
22,CCCCN(CCCNC(=O)c1ccc2nc(N3CCOCC3)sc2c1)Cc1ccccc1,-62%
